Data: the supplement of paper PMC7826260
Some of the results follow. Viral Rep nickase domains cut single-stranded DNA in vitro (1 h at 37 °C, 3 µM enzyme); the outer parts of the 90-letter strands are left off. A value is the log2 ratio of uncut reads to the pool without enzyme; strong cutting gives strongly negative numbers. There is no active / inactive call. Shares of all reads are compared, so uncut sequences can rise above 0 when many others are cut.

Experiments:
Assay in all cases: uncleaved DNA left, log2 of reads against the no-enzyme library (log2 ratio); higher = less cleavage (more negative = more Rep cleavage of the k-mer); sequences stand for … in CTCGTCCG…ACCGGAGA
[1] = test system: T1, Rep nickase domain of Muscovy duck circovirus
T1 sequence (residues 1-111, tag not shown): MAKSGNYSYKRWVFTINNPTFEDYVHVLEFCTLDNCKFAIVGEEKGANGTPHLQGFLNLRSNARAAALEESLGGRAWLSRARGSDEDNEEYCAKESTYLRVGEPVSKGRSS
Experimental: (§1)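 A pool of 90-nt single-stranded DNAs with seven random bases just before the constant AC of the nick site (name = the seven bases) was cut by 3 µM recombinant His6-SUMO-tagged Rep nickase domain (300 nM DNA, 50 mM HEPES pH 8.0, 50 mM NaCl, 1 mM MnCl2, 1 h, 37 °C, three replicates). Uncut DNA was amplified and sequenced.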

[2] = test system: T2, Rep nickase domain of banana bunchy top virus
T2 sequence (residues 1-94, tag not shown): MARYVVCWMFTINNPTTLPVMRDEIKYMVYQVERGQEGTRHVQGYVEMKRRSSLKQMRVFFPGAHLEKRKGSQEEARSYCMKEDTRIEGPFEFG
Experimental: as §1

[3] = test system: T3, Rep nickase domain of cabbage leaf curl virus
T3 sequence (residues 1-116, tag not shown): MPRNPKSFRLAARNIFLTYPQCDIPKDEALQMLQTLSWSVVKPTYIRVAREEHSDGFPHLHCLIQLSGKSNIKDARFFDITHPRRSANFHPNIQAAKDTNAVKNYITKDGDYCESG
Experimental: as §1

[4] = test system: T4, Rep nickase domain of chickpea chlorotic dwarf virus
T4 sequence (residues 1-124, tag not shown): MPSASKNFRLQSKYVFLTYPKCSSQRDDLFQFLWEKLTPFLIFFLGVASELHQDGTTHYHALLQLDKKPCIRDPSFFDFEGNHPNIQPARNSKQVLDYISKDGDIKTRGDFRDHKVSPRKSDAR
Experimental: as §1

[5] = test system: T5, Rep nickase domain of faba bean necrotic yellows virus
T5 sequence (residues 1-98, tag not shown): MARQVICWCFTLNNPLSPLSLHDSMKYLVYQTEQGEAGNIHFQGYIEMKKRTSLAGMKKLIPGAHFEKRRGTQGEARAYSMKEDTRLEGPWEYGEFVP
Experimental: as §1

[6] = test system: T6, Rep nickase domain of maize striate mosaic virus
T6 sequence (residues 1-117, tag not shown): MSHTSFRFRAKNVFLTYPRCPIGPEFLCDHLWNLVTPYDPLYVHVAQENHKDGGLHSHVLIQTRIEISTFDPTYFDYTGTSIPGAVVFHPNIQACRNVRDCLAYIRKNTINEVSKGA
Experimental: as §1

[7] = test system: T7, Rep nickase domain of porcine circovirus 2
T7 sequence (residues 2-116, tag not shown): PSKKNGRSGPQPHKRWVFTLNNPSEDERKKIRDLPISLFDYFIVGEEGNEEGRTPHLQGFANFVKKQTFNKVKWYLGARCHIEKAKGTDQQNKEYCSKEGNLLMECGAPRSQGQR
Experimental: as §1

[8] = test system: T8, Rep nickase domain of tomato golden mosaic virus
T8 sequence (residues 1-124, tag not shown): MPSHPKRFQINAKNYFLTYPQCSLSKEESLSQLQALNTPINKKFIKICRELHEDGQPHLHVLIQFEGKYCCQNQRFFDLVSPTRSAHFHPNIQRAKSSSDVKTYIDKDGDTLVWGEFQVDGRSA
Experimental: as §1

[9] = test system: T9, Rep nickase domain of tomato yellow leaf curl virus
T9 sequence (residues 1-136, tag not shown): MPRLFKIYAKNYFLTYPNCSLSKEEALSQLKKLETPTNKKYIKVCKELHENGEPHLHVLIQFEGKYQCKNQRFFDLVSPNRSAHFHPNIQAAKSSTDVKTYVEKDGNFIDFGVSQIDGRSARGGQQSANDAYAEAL
Experimental: as §1

[10] = test system: T10, Rep nickase domain of wheat dwarf virus
T10 sequence (residues 1-137, tag not shown): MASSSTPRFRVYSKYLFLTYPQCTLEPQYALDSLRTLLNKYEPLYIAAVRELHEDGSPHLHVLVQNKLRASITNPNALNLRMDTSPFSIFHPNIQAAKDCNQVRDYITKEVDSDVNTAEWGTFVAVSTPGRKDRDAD
Experimental: as §1

Sequence	uncleaved DNA left (log2) [1]	uncleaved DNA left (log2) [2]	uncleaved DNA left (log2) [3]	uncleaved DNA left (log2) [4]	uncleaved DNA left (log2) [5]	uncleaved DNA left (log2) [6]	uncleaved DNA left (log2) [7]	uncleaved DNA left (log2) [8]	uncleaved DNA left (log2) [9]	uncleaved DNA left (log2) [10]
CTAACAA	-0.0488	0.0733	-0.434	-1.19	-0.0258	-0.679	0.0632	0.0176	-0.0332	0.00984
CACTTGC	0.0413	0.0673	-0.843	-0.36	0.0316	-1.01	0.107	-0.146	0.131	-0.0419
GGCTTCA	-0.0815	-0.0463	0.28	0.72	-0.111	1.47	-0.117	-0.0841	-0.0767	-0.00375
TGCGTAC	0.0173	-0.0784	-0.388	-0.342	0.0502	-0.567	0.0674	-0.062	-0.00555	-0.125
GTGAGTG	0.131	0.0319	-0.00196	0.522	0.11	1.06	0.173	0.125	0.0213	-0.0299
CCTTGCA	0.047	0.0559	-0.777	-0.863	0.122	-1.17	0.176	0.00541	0.214	-0.0704
AAATGCA	-0.294	0.0106	-0.991	-1.58	0.006	-1.31	-0.994	-0.00608	0.0467	-0.118
GAGGGAT	0.04	0.0215	0.212	1.53	-0.0349	1.85	0.0599	0.149	-0.133	0.0539
GATGTGG	0.00674	-0.0993	-0.125	0.0166	-0.0377	-0.637	-0.00569	-0.0246	-0.0798	-0.0533
TTACCCT	-0.35	-0.224	-0.422	-2.61	-0.159	-0.505	-2	-0.254	-0.143	-0.198
TCGCAAT	-0.0381	0.135	0.559	1.58	0.00776	1.38	-0.155	0.168	0.00282	0.0639
CGGTTAA	0.0788	0.0096	0.0184	0.1	-0.00716	0.143	-0.00148	0.0464	-0.0747	-0.0301
TCCCACA	-0.138	-0.101	0.0316	-1.16	0.0128	-0.2	-0.0843	-0.0517	-0.0521	-0.162
CAGACTG	0.118	0.103	0.0821	0.822	0.0433	1.81	0.108	0.0742	-0.095	0.115
ACCGGTA	-0.188	-0.0497	0.049	-0.00702	-0.0356	-0.387	-0.0485	-0.0832	-0.199	-0.128
TGAACCA	-0.114	0.0284	0.176	-0.855	-0.0293	0.161	-0.4	-0.043	-0.0337	0.103
CCAAGCG	-0.01	-0.141	-0.665	-0.434	-0.15	-1.03	-0.0998	-0.197	-0.148	-0.212
TATCAAG	-0.0778	0.00291	-0.74	-0.767	0.0431	-1.35	0.11	-0.106	-0.118	-0.0642
GGTTGAC	-0.0447	0.116	0.844	1.9	-0.0368	2.2	0.317	-0.0111	0.135	0.17
TTCGCCA	-0.113	-0.0268	0.0162	-0.861	-0.0305	-0.553	-0.197	-0.089	-0.12	-0.0634

Sequence	uncleaved DNA left (log2) [1]	uncleaved DNA left (log2) [2]	uncleaved DNA left (log2) [3]	uncleaved DNA left (log2) [4]	uncleaved DNA left (log2) [5]	uncleaved DNA left (log2) [6]	uncleaved DNA left (log2) [7]	uncleaved DNA left (log2) [8]	uncleaved DNA left (log2) [9]	uncleaved DNA left (log2) [10]
ATACGTA	-0.0738	-0.0968	-0.143	-0.956	0.0341	-0.598	-0.0613	0.0325	0.0535	-0.0358
AGCTTAT	-0.17	0.00387	0.0731	-0.047	-0.0959	0.0518	-1.67	-0.0367	0.0674	-0.0521
TGGCGTG	-0.0914	-0.0976	-0.238	-0.163	-0.0418	-0.461	0.0956	-0.0818	-0.145	-0.0991
TAGCTCA	-0.019	0.0745	-0.195	-2.04	-0.0192	-0.402	-2.07	0.0382	0.179	-0.00195
AGGTACT	-1.63	-0.264	0.00215	-0.608	-0.282	1.04	-3.26	-0.0413	0.124	0.0185
GCGACGA	0.0906	0.169	0.269	0.893	0.0785	1.52	0.212	0.0678	-0.00933	0.107
CTTCTCA	-0.136	-0.0462	-0.23	-1.07	-0.176	-0.695	-0.2	-0.22	-0.0454	-0.0293
AGCCGGT	0.0855	0.0178	0.172	0.465	0.0688	0.926	-0.0875	0.0679	-0.0404	-0.0105
TGCATCA	-0.0246	0.179	0.282	-0.0496	0.0548	0.134	-0.1	0.0852	0.162	0.251
CTGGAAG	-0.00913	-0.0222	-0.786	-0.411	-0.051	-1.01	0.139	0.0101	0.0282	-0.0685
ACCGAGT	-0.0529	-0.0196	-0.0545	0.029	0.0332	-0.665	0.00609	-0.02	0.0707	-0.192
TGCCCTT	0.167	0.0646	0.784	0.993	0.0849	1.76	-0.107	0.0227	0.097	0.132
ACGCTTC	-0.0696	0.0608	-0.169	-0.267	-0.0131	-0.768	0.0452	-0.236	-0.187	-0.04
TGATAGG	0.235	0.0978	0.368	1.09	-0.084	1.08	0.172	0.185	-0.0075	0.121
GTAGTTG	0.0376	-0.0922	-0.00937	0.287	-0.00286	0.188	0.0458	0.0315	0.0437	0.101
CTGTCAG	-0.0094	-0.131	-0.81	-0.568	0.0107	-0.929	-0.0233	-0.16	-0.0301	-0.194
AATACGC	-0.0472	-0.00874	-0.0623	-0.564	0.0206	-0.869	-0.0726	-0.17	-0.12	-0.146
TGAGGGT	-0.0297	0.0959	0.233	1.55	-0.0288	1.84	0.263	0.0576	-0.115	-0.0211
AAAGATA	0.2	0.113	0.132	-0.794	0.218	0.946	0.13	0.194	-0.094	0.132
GCACCTA	-0.0726	-0.0623	-0.066	-0.415	-0.2	0.000348	-0.211	-0.0561	-0.0333	-0.0124

Sequence	uncleaved DNA left (log2) [1]	uncleaved DNA left (log2) [2]	uncleaved DNA left (log2) [3]	uncleaved DNA left (log2) [4]	uncleaved DNA left (log2) [5]	uncleaved DNA left (log2) [6]	uncleaved DNA left (log2) [7]	uncleaved DNA left (log2) [8]	uncleaved DNA left (log2) [9]	uncleaved DNA left (log2) [10]
CTTTCGA	0.0122	0.0962	-0.648	-0.799	0.0466	-1.17	0.0239	-0.042	0.0283	-0.0472
GGGATAG	0.0801	0.106	0.871	2.12	-0.082	2.22	0.217	0.0762	-0.0228	0.121
GGTCGAA	0.0828	0.13	0.565	1.28	0.115	1.69	0.176	0.112	0.157	0.133
TAGTCCC	-0.24	-0.208	-0.0827	-0.478	-0.372	0.206	-3.19	-0.255	-0.166	-0.121
GATTTCT	-2.9	-2.67	0.311	-1.42	0.0945	0.894	-3.09	0.152	0.176	0.146
TTGCACC	-0.0395	-0.143	-0.471	-0.686	-0.0221	-0.99	-0.0701	-0.116	-0.0976	-0.0739
CACTCGG	0.0839	0.156	0.479	1.32	0.0939	1.3	0.243	0.223	-0.028	0.103
TATTGGA	-1.35	-0.131	-0.236	-0.661	0.108	-1.08	-0.787	0.0582	-0.0671	0.037
ACAAAAT	0.00949	-0.0779	-0.196	-0.703	0.0594	-0.696	0.0937	0.161	-0.0827	0.0256
ATAGAGA	0.194	0.105	0.392	0.544	0.198	-0.482	0.268	0.178	0.0631	0.147
CTGCTTA	0.0719	-0.185	-0.108	-1.14	-0.056	-0.786	-0.22	-0.186	0.0127	-0.199
GGCTTAT	-0.131	-0.0703	0.472	1.01	-0.0203	1.66	-0.53	-0.122	-0.133	0.0177
GCTAGCT	0.0954	-0.0279	-0.185	-0.319	0.0474	-0.584	0.0128	-0.0732	-0.0383	-0.0821
TTCGGAA	-0.0464	0.0176	0.388	0.722	0.0852	0.808	0.054	0.0732	-0.103	0.137
ATTTAAA	-0.0336	-0.0321	-0.0965	-0.19	0.0353	-0.556	-0.0723	0.0695	-0.0364	0.00209
CCTGAGG	0.0564	0.17	0.683	1.62	0.119	1.71	0.154	0.349	0.181	0.114
ACCGGAA	0.0534	0.19	0.221	0.507	0.0301	0.112	0.223	0.0299	0.0181	0.0978
TCTGAAC	0.138	0.0121	0.000301	0.376	0.00571	0.699	0.192	0.0894	0.00553	0.0611
TCATGCA	-0.022	0.0861	-0.656	-0.958	0.093	-1.25	0.0512	-0.05	0.103	0.0766
GCAAATA	0.000557	0.112	-0.0742	-0.498	-0.0179	0.0436	0.0798	0.139	0.0692	0.1
